Laboratory results from the supplement of paper PMC11417369.
± gives the standard deviation of the averaged measurements. The list shows a part of the results.

system: PfAP2-LT AP2 domain (GST-tagged); test: gcPBM binding intensity (ln(normalized median fluorescence intensity)); higher = stronger DNA binding
Method in brief: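 Plasmodium falciparum DNA-binding domains carrying a GST tag were expressed in E. coli and applied for 1 h, at about 25 μg on average, to an Agilent 4 × 180k array. The array held primer-extended double-stranded 36-bp intergenic genomic probes together with negative controls, and binding took place in 1× PBS with 1% milk, 0.2 mg/ml BSA, 0.5% salmon testes DNA and 0.03% Triton X-100. An Alexa488 anti-GST antibody detected bound protein, and the array was scanned at 488 nm. Binding intensity is taken as the highest Masliner-normalised natural-log median intensity across replicate spots of either probe orientation.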

Sequence | gcPBM binding intensity (ln)
ACATATTAGGGTCATGAACACACAAAAAAAAAAAAA [CACACA_site8218] | 8.99 ± 0.61
TATATATATTAAAAACGTACAAAATAAGAATTAATT [XGTACX_site5979] | 8.81 ± 0.37
GGATATATTTTATGTACACACACATATAAGGGATTA [CACACA_site4181] | 9.24 ± 0.3
TCTAGGAAAAATTATAGTACACAAAAATATATATAT [XGTACX_site4136] | 8.7 ± 0.4
TATGACACTTTGAAGGGTACATGCAGAAAAAAAAAA [XGTACX_site569] | 8.72 ± 0.42
TTATATGCACTTTTTGCACACGTATGAATAACAAAA [CACACA_site1811] | 8.9 ± 0.35
ATATATACATATACTATATCTTTTATTTTTATTATT [GTGCAC_negctrl_site127] | 8.74 ± 0.52
TATATAAATGTATACACACACATATAAATATAAATA [CACACA_site6751] | 9.22 ± 0.4
ATTCTAATTACATATACACACAAAGGTTCATAACAA [CACACA_site3076] | 8.84 ± 0.35
TTCCCATGTAATATTAAACACACACCCATATAACAC [CACACA_site7905] | 9.505 ± 0.078
TAACTACTAGAAAAAACACACAAAAAGTAAATATAT [CACACA_site2740] | 8.99 ± 0.5
TGTTTAACATTTATATGTACATATATTCACATATTA [XGTACX_site342] | 8.9 ± 0.38
TGATTTTTTTTTTTTTTTTTTTTTTTTTTAGTTTGC [CACACA_negctrl_site1057] | 8.4 ± 0.55
TACCAAATCACCCCTTGTACCCATTTTAAAATTTTC [XGTACX_site396] | 8.88 ± 0.4
TAAAATATAAGACACACACACATATATTTATATATC [CACACA_site6248] | 9.79 ± 0.3
ATAAACAGATCATATACATGCATATATGTAGAATAA [TGCATGCA_site157] | 9.05 ± 0.45
GTACAGATGTAGTATGCATGTAATTATATATAAATT [TGCATGCA_site292] | 9.02 ± 0.5
ATATAAAAAAGAGGGAGTACTTGTAACAAAATAATA [XGTACX_site8679] | 8.79 ± 0.41
ACGTAGTAGGTATTATGTACATATTTATAAGTATAA [XGTACX_site7336] | 8.78 ± 0.45
ACATGTTCATAATTTTGTACATATTTTTATGAACAT [XGTACX_site3976] | 8.91 ± 0.3
ACATACGAAAATTGGAAGGATAGATAAAAAGAAAAT [CACACA_negctrl_site51] | 8.96 ± 0.51
AAAAAGCAGGATTATACACACAAATATTTATATGTT [CACACA_site6634] | 9.13 ± 0.45

Sequence | gcPBM binding intensity (ln)
GCGTAGTTCGGAAGGGTGCTTTTTTGTTAATAAAAA [GTGCAC_site9592] | 8.6 ± 0.49
AATATTTATTTTTTTGCACACATATTTTACATTTTA [CACACA_site3182] | 9.48 ± 0.41
GTAAAATTTCGGATTTGTACACATGGCTATGAAAAA [XGTACX_site939] | 8.73 ± 0.44
TCCCATAATATTAGTAGTACTATTAATATTTTCAGG [XGTACX_site4925] | 8.51 ± 0.41
TTATGTTATAAATACACACACAAAAGAAAAAAAAAA [CACACA_site7414] | 9.2 ± 0.47
TTCTCTATAAATGCTGCACACACATTTAATTATTTA [CACACA_site8828] | 9.21 ± 0.36
ATTTCTTTTTTTTCTTGTACACATATTAAATTTATG [XGTACX_site734] | 8.92 ± 0.55
CAGACCTCTTTGTCATGTACATAAAAAAATAAAGAA [XGTACX_site7887] | 8.72 ± 0.53
TATTTCTTTTGGTTGGTGCATAAAATAATACAATAT [GTGCAC_site9916] | 8.6 ± 0.35
TATAAACAGACGAAAACACACATATGTAAATATATA [CACACA_site4428] | 9.15 ± 0.44
ATAAAAATAATATCATGTACATATGTGTATTGTATT [XGTACX_site1768] | 8.88 ± 0.42
TACAAAAAGTTATACACACACGTACCTATAAATAGA [CACACA_site6571] | 9.24 ± 0.37
CCACATGAGATGATTACACACATATAAATATTTACA [CACACA_site6222] | 9.02 ± 0.45
TATAAGAAAATAATGTGTACTAAATAATAAATGCAT [XGTACX_site1204] | 8.87 ± 0.44
ACTTTTTAATAATAATAATTATATATATATATATAT [TGCATGCA_negctrl_site459] | 9.01 ± 0.34
ATATATATTTAATTTACACACAAAAAAAATTGTTGG [CACACA_site961] | 8.85 ± 0.38
AATACATAAATATTTTGTACATATTATATAAAATAT [XGTACX_site1627] | 8.62 ± 0.52
ATAAATGAAGATAAATTAAAAAAAAAAAAAAAAAAA [CACACA_negctrl_site992] | 8.31 ± 0.41
GAATGTATTCATAAATGTACTTATAATATTATAATA [XGTACX_site3466] | 8.52 ± 0.42
ATAACATACATAACAACACACAATATTTATATGTAT [CACACA_site210] | 9.2 ± 0.34
CGACTTTTAAAATATACACACATATATATATATATA [CACACA_site825] | 9.48 ± 0.24
ATGAAAAAAAAAAAAAAAAAAAAAAAAAAAAAAAAA [CACACA_negctrl_site1405] | 8.1 ± 0.49

Sequence | gcPBM binding intensity (ln)
CTTGTACCTAGAAATACACACAATTATATAACTTAT [CACACA_site2838] | 8.84 ± 0.42
ATTTGCTTTTATTTTACACACTTGCTCCTGTTGTAC [CACACA_site1088] | 9.52 ± 0.47
AAAAAAAAATATATTGCACACCTCTCAATAAAAAAA [CACACA_site172] | 8.84 ± 0.39
TCCATTCTATTTTTTACACACGTATGTAAATATTAT [CACACA_site2686] | 9.04 ± 0.39
AGAATATATATAATAGTGCAATGTACAATGAACAAA [GTGCAC_site9577] | 9.07 ± 0.39
ACGAATTAAATGGATTAATATATATATGTATATTTA [CACACA_negctrl_site1512] | 8.53 ± 0.39
TTAAATACTTTTCGAAGTACATTATATATATAATAT [XGTACX_site7530] | 8.56 ± 0.4
CGCAACACTATTTGGGTGCTCTTCAAAAAAAAAAAA [GTGCAC_site9598] | 8.23 ± 0.4
ATAATGTTTCTTTCAACACACAAAAAATGAACACAT [CACACA_site1552] | 8.91 ± 0.47
AAAAAAGAAAAAAGGACACACATAAATATACTCACG [CACACA_site2904] | 9.16 ± 0.48
CATACATACGGACACACACACATATATATATATATA [CACACA_site5598] | 10.3 ± 0.15
TATATAAGCGCATGCACACGCAAAGGTATATAAATA [CACACA_site622] | 9.39 ± 0.4
AAAAAAAAAAAATAGACCTCCTAAGCAAAAGAAAAA [GTGCAC_negctrl_site634] | 8.62 ± 0.53
AATATAAATAAAAACACACACAATGGTACAGATATA [CACACA_site5930] | 9.4 ± 0.36
AATTTAAATTAGAATTGTACTAGAAAAGGAATATAT [XGTACX_site6162] | 8.55 ± 0.5
AATTATATAATCTTATAACATAATATAATAACATTT [CACACA_negctrl_site187] | 8.4 ± 0.45
ATAATTTTCCATATTTGTACATATTTTTTTCCCTTG [XGTACX_site8146] | 8.92 ± 0.59
ATTCTATTATAATATTCACACACTAACGTAAATCAT [CACACA_site2750] | 9.05 ± 0.39
TAATGACTGAAAAATTGTACATATGTATATATGTAT [XGTACX_site2415] | 8.84 ± 0.41
TATTTATTTGTTTAAGGTACAGAACAAATTTTTATT [XGTACX_site7414] | 8.39 ± 0.47
AAATGTTCTTAAAAATGAATAATATATATATATATA [CACACA_negctrl_site796] | 8.89 ± 0.014
CATAAATACATACATACACACATATATATATATATA [CACACA_site2106] | 9.88 ± 0.085

Sequence | gcPBM binding intensity (ln)
ATATTTATTATTATATGTACGTAACATCTTTATAAA [XGTACX_site7016] | 8.86 ± 0.49
AAATGTTGAAAAATATGTACATATTATATATATTAT [XGTACX_site1165] | 8.77 ± 0.42
TAAGAAAGACAAAAAAAATGAAAAGAAAAAAAATGA [CACACA_negctrl_site1469] | 8.59 ± 0.49
AATATAAGCAAATACACACACACATATATATATATA [CACACA_site3805] | 10.29 ± 0.035
ATTTAGAAAAAATATACACACAGCCTAAACATGCAT [CACACA_site4067] | 9.07 ± 0.45
TTATCCTATACAAGGGAAAAATAAAATAAAATAAAT [TGCATGCA_negctrl_site272] | 8.66 ± 0.49
TAAAAAATATTATATACACACAGTATAAAAAAAAAT [CACACA_site4012] | 8.95 ± 0.49
ATTGATTATTTTCTAGTGCATAAAATAATTTTTTTT | 8.43 ± 0.42
ATATACATATTATAATGTACATATTTTAATAACCTT [XGTACX_site7617] | 8.69 ± 0.35
AGTGTCATATAAAATTGTACTTTTTTTTTTTTCTTT [XGTACX_site5651] | 8.55 ± 0.6
ATAATGAACAATATTATATATAAAATATAATTTATA [GTGCAC_negctrl_site564] | 8.51 ± 0.38
ATGTATGTTTGTTATGCACACAAATGCATCTTATTT [CACACA_site8861] | 9.44 ± 0.54
GAGAAATGGGGACACACACACATATTATATATATAT [CACACA_site4943] | 9.77 ± 0.37
AAGCACAAAAAATACACACACAAAAAATAAAAAAAG [CACACA_site1840] | 9.48 ± 0.44
TATATGCATAATAACTGTACACAAATTGGGGTTGAT [XGTACX_site459] | 8.98 ± 0.4
ATATAAATATATGTATGTACGCATGTATGTATCTAT [XGTACX_site3290] | 9.21 ± 0.4
TTTTAATTTATTTATGCACACATATATAATTACACA [CACACA_site8126] | 8.97 ± 0.46
AAAAATAAACAATATATAGTTATATATATATATATA [TGCATGCA_negctrl_site82] | 9.23 ± 0.39
ATTATATATATGTGCACACAAAAGATATATATATAT [CACACA_site5205] | 9.95 ± 0.26
AAATAATTTACTTAATGTACATATATATATATATAT [XGTACX_site8594] | 9.41 ± 0.45
ATATTTATTTGTTAGTGTACATACATATATATATAT [XGTACX_site1347] | 9.13 ± 0.47
TTTTCTATGCTAAACACACTCATTGTTACAAGTTTT [CACACA_site5531] | 8.84 ± 0.49
